Experimental data taken from PubChem BioAssay AID1030 (National Center for Advancing Translational Sciences (NCATS), 2008).
Hit rate of the full screen: of about 220,000 compounds, about 16,000 (7.3%) were called active. Inconclusive means that the source gave no clear call. Such entries were picked first, then a sample of the others. Calls follow the shape of the dose curve; as a rule, active = well fitted inhibition curve with a large enough effect (not every such curve was filed as active); inconclusive = small, poorly fitted or top-dose-only effect, or another doubt; inactive = no such curve, though single readings can be large or run the other way. Where the call is inconclusive, the potency comes from a doubtful curve fit.

What follows are compounds tested against Aldehyde dehydrogenase 1A1 (Homo sapiens) (UniProt P00352) (assay: qHTS Assay for Inhibitors of Aldehyde Dehydrogenase 1 (ALDH1A1)). Details: Purified ALDH1A1, NADH fluorescence, propionaldehyde substrate; series mostly up to 75.3 µM; activity, negative = inhibition: at the top concentration.
Sequence of UniProt P00352 (P00352 whole entry, looked up): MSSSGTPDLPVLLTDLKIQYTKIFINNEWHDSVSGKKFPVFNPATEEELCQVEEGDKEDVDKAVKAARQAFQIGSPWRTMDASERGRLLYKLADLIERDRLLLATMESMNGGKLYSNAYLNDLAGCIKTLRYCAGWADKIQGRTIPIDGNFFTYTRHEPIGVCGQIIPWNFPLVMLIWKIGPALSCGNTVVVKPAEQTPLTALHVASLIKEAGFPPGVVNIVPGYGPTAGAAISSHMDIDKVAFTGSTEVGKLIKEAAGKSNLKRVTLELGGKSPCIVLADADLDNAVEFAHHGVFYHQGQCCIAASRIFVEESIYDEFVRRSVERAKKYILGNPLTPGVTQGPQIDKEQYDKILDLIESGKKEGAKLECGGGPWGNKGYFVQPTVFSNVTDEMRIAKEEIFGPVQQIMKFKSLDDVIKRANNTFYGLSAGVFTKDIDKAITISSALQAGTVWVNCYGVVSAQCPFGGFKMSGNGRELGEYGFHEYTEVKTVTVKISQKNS

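For activity, negative = inhibition in this document: plate controls were no enzyme wells and a reference inhibitor.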
Potency is read from the fitted curve at half-maximal effect; tags tell the direction and shape of the fitted curve.

Potency, active:
O=C(c1ccco1)N1CCC(n2nnc3ccccc32)CC1 25.1 µM
CCOC(=O)C1C(c2ccc(Cl)cc2)NC(=S)NC1(O)C(F)(F)F (centres undefined) 7.94 µM

Potency, inconclusive:
COCCC1CCCCN1Cc1cn(-c2ccccc2)nc1-c1ccc2c(c1)OCO2 (centres undefined) 35.5 µM [inhibitor, single point]
COc1cc2c(cc1OC)CN(CC(=O)Nc1ccc(Cl)c(S(=O)(=O)N(C)C)c1)CC2 39.8 µM [inhibitor, single point]
COc1ccccc1N/N=C/c1c(CO)cnc(C)c1O 39.8 µM [inhibitor, single point]
O=C(NCc1ccco1)c1cnn2c(C(F)F)cc(-c3ccccc3)nc12 35.5 µM [inhibitor, single point]
COc1ccc(NC(=O)Cc2nc3ccccc3[nH]2)cc1 17.8 µM [inhibitor, partial curve]
O=C(CSc1ccc(C(F)(F)F)cn1)Nc1ccccc1 39.8 µM [inhibitor, single point]
CCC(=O)OCCNc1cc(SCCC(=O)OC)c2nonc2c1[N+](=O)[O-] 25.1 µM [inhibitor, partial curve]
CC1(C)CC(=O)c2cc(OCC(=O)NCC3CCCO3)ccc2O1 (centres undefined) 35.5 µM [inhibitor, partial curve]
CCN(CC)CCN1C(=O)C(O)=C(C(=O)c2ccco2)C1c1ccccn1 (centres undefined) 39.8 µM [inhibitor, single point]
O=C(/C=C/c1cccc([N+](=O)[O-])c1)NC(=S)Nc1cccc(NC(=O)c2ccccc2Cl)c1 15.8 µM [inhibitor, partial curve]
O=c1cc(-c2ccccc2)c2cc3c(cc2[nH]1)OCCO3 35.5 µM [inhibitor, single point]
COc1ccc2[nH]c3ccc(OC)cc3c2c1 37.7 µM [inhibitor, single point]
CCCCNC(=O)c1cc2c(=O)n3cccc(C)c3nc2n(CCN2CCOCC2)c1=N 20 µM [inhibitor, partial curve]

activity, negative = inhibition, inactive:
NC(=O)c1cc[n+](CC2=C(C(=O)[O-])N3C(=O)[C@@H](NC(=O)Cc4cccs4)[C@@H]3SC2)cc1 11.8% [at 20.9 µM]
O=C(/C=C/c1ccccc1)c1ccc(NC2=NCCCS2)cc1 -7.22%
CN(C)C(=O)c1ccc(-c2nc(NCc3cccs3)c3ccccc3n2)cc1 1.11%
Cc1ccc(S(=O)(=O)Nn2c(C)nnc2-n2nc(C)cc2C)cc1 4.3%
